What was measured:
[1] = target: Recombinant human NGF (Sigma) (human, UniProt P01138 partial chain, limits assumed); experiment: cell-based or functional assay
[2] = target: Recombinant mouse NGF (R&D Systems) (mouse, UniProt P01139 122-241); experiment: cell-based or functional assay
Sequence of UniProt P01139 (P01139 122-241 limits assumed): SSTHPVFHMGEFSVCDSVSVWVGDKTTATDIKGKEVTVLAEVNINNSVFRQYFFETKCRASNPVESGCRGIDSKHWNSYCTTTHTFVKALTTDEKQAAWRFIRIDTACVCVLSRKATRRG

Sequence of UniProt P01138 (P01138 122-241 limits assumed): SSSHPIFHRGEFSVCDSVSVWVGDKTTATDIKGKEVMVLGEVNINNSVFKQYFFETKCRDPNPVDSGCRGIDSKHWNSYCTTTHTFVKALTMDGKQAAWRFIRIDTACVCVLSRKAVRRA

B1: TNFR2-Fc_VH#4 (Fc fusion)
chain: LPAQVAFTPYAPEPGSTCRLREYYDQTAQMCCSKCSPGQHAKVFCTKTSDTVCDSCEDSTYTQLWNWVPECLSCGSRCSSDQVETQACTREQNRICTCRPGWYCALSKQEGCRLCAPLRKCRPGFGVARPGTETSDVVCKPCAPGTFSNTTSSTDICRPHQICNVVAIPGNASMDAVCTSTSPTRSMAPGAVHLPQPVSTRSQHTQPTPEPSTAPSTSFLLPMGPSPPAEGSTGD[sequence of human IgG1 Fc not given]GGGGSGGGGSQVQLVQSGAEVKKPGSSVKVSCKASGGTFSTYGISWVRQAPGQGLEWMGGIIPIFDTGNSAQSFQGRVTITADESTSTAYMELSSLRSEDTAVYYCARSSRIYDLNPSLTAYYDMDVWGQGTMVTVSSGGGGSGGGGSGGGGSAQSVLTQPPSVSAAPGQKVTISCSGSSSNIGNNYVSWYQQLPGTAPKLLIYDNNKRPSGIPDRFSGSKSGTSATLGITGLQTGDEADYYCGTWDSSLSAWVFGGGTKLTVL
With B1 the “IC50 (read off the curve), human NGF-induced TF-1 proliferation” value [1] was roughly 0.5 nM and the “IC50 (read off the curve), murine NGF-induced TF-1 proliferation” value [2] was roughly 0.1 nM.
